Data reported in PubChem BioAssay AID504706 (National Center for Advancing Translational Sciences (NCATS), 2011).
The whole screen tested about 320,000 compounds, of which about 200 (0.062%) were called active. The inconclusive results got no clear call from the source; some entries with a clear call stand among them for comparison. The call rests on the fitted dose curve; in most records, active means well fitted activation curve with a large enough effect; inconclusive means small, poorly fitted or top-dose-only effect; inactive means no such curve, though single readings can be large or run the other way. No potency is given beside an inconclusive call; the fits are too rough.

Assay: qHTS assay for re-activators of p53 using a Luc reporter; further: nearly all actives have a fitted effect of over 45% in size
Conditions: H1299 p53-A138V BP100-luciferase reporter, luminescence, 24 h; series mostly up to 92.2 µM
Description: The p53 tumor suppressor plays a key role in suppression of tumorigenesis and in human carcinogenesis. It is frequently found inactivated in human cancers, mainly by point mutation. These point mutations are found in a wide variety of human cancers and a majority of them affect the DNA binding domain of the protein. The point mutations either alter native p53 conformation or abolish DNA contact. Additionally, cancer cells with p53 mutations are more resistant to chemo-radiation therapies. In order to find activators to reactivate this important protein, a cell-based screen for p53-dependent luciferase-reporter expression was developed. A p53-null H1299 lung cancer cell line was stably co-transfected with a temperature sensitive p53 mutant, p53-A138V, and a p53-responsive BP100-luciferase reporter. This cell model has previously been characterized in a gene chip profiling experiment for p53 activation. By lowering the culture temperature from 37 deg C (mutant p53 conformation) to 32 deg C (w.t. p53 conformation), a 30-60 fold increase in activation of luciferase activity is observed. At assay temperate, 37 deg C, basal reporter expression is very low and after the addition of detection reagent, a luminescent read-out is carried out. NIH Chemical Genomics Center [NCGC] NIH Molecular Libraries Probe Production Centers Network [MLPCN] MLPCN Grant: DA031088-01A1 Assay Provider (PI): Yi Sung, University of Michigan at Ann Arbor
5ul of 1000 cells per well are dispensed in all wells except column 4, into white solid-bottom TC-treated Kalypsys plates. The cells are kept in Opti-MEM and supplemented with 10% FBS and dispensed using a Multidrop (Thermo). Then using the Kalypsys pin-tool, 23nl of compounds are pinned. The compounds are starting concentration at 10mM, with 1:5 dilution, 4 points, and the control compound nocodazole is pinned in column 1 at 25mM, 1:3 dilution, in duplicate, 25mM nocodazole is pinned in column 2. Please note, all concentrations are working concentrations. 5ul of 1pM purified luciferase enzyme is dispensed using the Kalypsys dispenser in column 4. Plates are incubated for 24 hrs at 37 deg C, 5% CO2, and 95% humidity. Then 4ul of the detection reagent Amplite (ABD Bioquest) is added using the Kalypsys dispenser. Plates are incubated for 10 min at ambient room temperature and are then read on the ViewLux (Perkin Elmer) using a clear filter for a luminescent read-out.
Potency means the concentration at half of the fitted maximal effect; tags describe the fitted curve by direction and shape.

Compound	Potency
Cc1cc(C)c2sc(N(CCCN(C)C)C(=O)c3ccc(S(=O)(=O)N4CCc5ccccc5C4)cc3)nc2c1	inconclusive [activator, partial curve, poor fit]
COC(=O)c1ccc2c(=O)n(Cc3ccc4c(c3)OCO4)c(=S)[nH]c2c1	inactive
Cc1ccn2cc(C(=O)N3CCN(c4cnn(-c5ccccc5)c(=O)c4Cl)CC3)nc2c1	inconclusive [activator, single point]
CN1N=C(C(=O)N2CCCC(N3CCN(c4ccc(F)cc4)CC3)C2)CCC1=O (configuration not stated)	inactive
CCc1ccc(NC(=O)c2cnn(-c3ccccc3)c2C)cc1	inconclusive [activator, partial curve, poor fit]
O=C(OCc1ccccc1F)c1ccc2c(c1)OCCO2	inconclusive [activator, partial curve, poor fit]
C1CSC2(N1)C1CC3CC(C1)CC2C3 (configuration not stated)	inconclusive [activator, partial curve, poor fit]
O=C(Nc1cccc(O)c1)c1noc2c1CCc1ccccc1-2	inactive
COc1ccccc1Cn1c(C(C)C)nc2ccccc21	inactive
CCn1c(SC)nc2c(c1=O)SC(C)C2 (configuration not stated)	inactive
O=C(CN1C(=O)NC2(CCc3ccccc32)C1=O)NCCc1ccccc1 (configuration not stated)	inactive
Cc1ccc(-n2nnnc2SCn2nnc3ccccc3c2=O)cc1	inconclusive [activator, full curve, poor fit]
Cc1cccc(NC(=S)NNC(=O)c2ccccc2Br)c1	inconclusive [activator, partial curve, poor fit]
Cc1cc(C)n(-c2nc3ccccc3c(=O)n2OCc2ccc(F)cc2)n1	inactive
O=C(Nc1ccccc1)c1nnn(Cc2ccccc2)c1NC(=O)C(F)(F)F	inconclusive [activator, partial curve, poor fit]
COc1ccccc1C(=O)Nc1nc(-c2cccs2)c(NC(C)=O)s1	inactive
CCN(CC(=O)Nc1ccccc1OC)C(=O)c1ccc2[nH]c3c(c2c1)CC(C)CC3 (configuration not stated)	inactive
CCCc1cc(C(=O)Nc2cccnc2)no1	inconclusive [activator, partial curve, poor fit]
CC(=O)N1CCN(C2=NC(=O)C(=C3CCCCC3)S2)CC1	inconclusive [activator, partial curve, poor fit]
COc1cc(N=CC2=C(O)c3ccccc3C2=O)cc(OC)c1	inconclusive [activator, full curve, poor fit]
COc1ccc(OCCSc2ncccn2)cc1	inconclusive [activator, partial curve, poor fit]
O=C(CSCc1ccc(Cl)cc1)N1CCOCC1	inconclusive [activator, single point]
CCOC(=O)N1CCC(N2CCCC(C(=O)c3cccc(OC(C)C)c3)C2)CC1 (configuration not stated)	inactive
CCc1ccc(NC(=O)c2ccccc2NC(=O)C2CCCO2)cc1 (configuration not stated)	inconclusive [activator, partial curve, poor fit]

Compound	Potency
Cc1ccc(C)c(NC(=O)c2ccc3ccccc3n2)c1	inconclusive [activator, partial curve, poor fit]
Cc1c(C(=O)N(C)C)sc2nc(-c3ccccn3)[nH]c(=O)c12	inactive
CCOc1ccc(NC(=O)c2cc3ccccc3cc2OC)cc1	inactive
Cc1ccc(/C=N/NC(=O)c2ccccn2)s1	inconclusive [activator, full curve, poor fit]
O=C(COC(=O)c1cccs1)c1ccccc1	inconclusive [activator, partial curve, poor fit]
O=C(CSc1nnc(-c2ccncc2)o1)Nc1ccccc1Cl	inconclusive [activator, partial curve, poor fit]
Cc1cc(=O)oc2cc(Nc3ccccc3)ccc12	inconclusive [activator, full curve]
COC(=O)c1ccccc1S(=O)(=O)N1CCC(C(=O)N(C)CCOc2ccccc2)CC1	inactive
O=c1cc(C(F)(F)F)[nH]c2c(OC(F)(F)F)cccc12	inactive
CN(CC(=O)Nc1ccc(Cl)c(C(F)(F)F)c1)C(=O)CCCNC(=O)c1ccc(Cl)cc1	inconclusive [activator, full curve, poor fit]
CN(Cc1ccccc1)C(=O)c1ncn(C)c1C(=O)N(C)Cc1ccccc1	inactive
CCc1ccc(NC(=O)CSc2nc3n[nH]c(C)c3c(=N)n2-c2cccc(OC)c2)cc1	inactive
C#CCn1c(=NC(=O)c2cccs2)sc2cccc(OC)c21	inconclusive [activator, full curve, poor fit]
Cc1cccc2cc3c(NC(=O)C(C)(C)C)nn(CC(C)C)c3nc12	inactive
O=C(Cc1ccccn1)c1ccc(Cl)cc1	inconclusive [activator, full curve, poor fit]
COc1cc(OC)c(OC)cc1/C=N/N(C)c1ccccc1	inactive
COc1ccc(-c2cc(C(=O)N3CCN(c4ccccc4OC)CC3)no2)cc1OC	inactive
CCN(CC)c1ccc(C(=O)OCC(=O)c2ccco2)cc1	inconclusive [activator, partial curve, poor fit]
COc1cccc(C(=O)N/N=C/C(Br)=C/c2ccccc2)c1	inconclusive [activator, partial curve, poor fit]
CSc1ccccc1NC(=O)c1cnc2n(c1=O)CCS2	inconclusive [activator, partial curve, poor fit]
CC1CCCN(C(=O)COC(=O)Cc2c(F)cccc2Cl)C1 (configuration not stated)	inconclusive [activator, partial curve, poor fit]
Cc1cccc(NC(=O)c2nc[nH]c2C(=O)N[C@@H](Cc2ccccc2)C(=O)OC(C)(C)C)c1	inactive
Cc1ccc(S(=O)(=O)Nc2cccnc2)cc1C	inconclusive [activator, single point]
